Measurements published in ChEMBL document CHEMBL4888484, “Replenishing the malaria drug discovery pipeline: Screening and hit evaluation of the MMV Hit Generation Library 1 (HGL1) against asexual blood stage Plasmodium falciparum ,using a nano luciferase reporter read-out” (2022).
The whole screen tested about 150,000 compounds, of which about 540 (0.36%) showed an effect of 50% or more. The list shows a part of the results.

test system: Plasmodium falciparum; assay: Primary screen in NF54 nanoGlo assay, in single point, at 2uM, 72h; a lower Z score goes with more inhibition; format: functional, Erythrocyte; settings: timepoint 72 hour

Structure (SMILES) | % Inhibition | Z score
COCc1nc(CN2CCN(C(=O)OC(C)(C)C)C(C)C2C)cs1 (stereo not drawn) | 2% | -0.24
O=C(CN1CCC[C@H]1c1nc2ccccc2s1)NCCc1c[nH]c2ccccc12 | -11% | 1.01
COc1ccc(Cc2nc(-c3ccc4c(c3)ncn4CCC(=O)N3CCCC3)no2)cc1 | -12% | 1.68
Cc1nc(N(C)C)sc1C(=O)N[C@@H](C)c1cc2ccccc2o1 | -6% | 0.74
C=CCO[C@H]1[C@H](NC(=O)COC)c2ccccc2C12CCN(Cc1cccc(C)c1)CC2 | -15% | 2.34
C[C@H](NC(=O)Nc1ccc(-n2cncn2)cc1C(F)(F)F)C(=O)NCC(F)(F)F | 11% | -1.36
COc1ccc(Cl)cc1S(=O)(=O)N(CC(=O)N1CCNCC1)C1CCCCCC1 | -6% | 0.64
CCC[C@H](N)C(=O)N(C)C1CCCCCC1 | -12% | 1.73
CN(CC(=O)NC1CC1)c1nc2c(Cl)cccc2s1 | -10% | 1.56
COC(=O)CC1=NN(c2nc(C)cc(C)n2)C(=O)C1 | -2% | 0.24
CC1(C)CC[C@H](CS(=O)(=O)N2CCC=C(F)C2)OC1 | -2% | 0.47
N#CCN1CCN(C2CC2)c2ccc(F)cc21 | -9% | 0.82
O=C(Nc1ccc2c(c1)CCC2)N1CCC[C@H]1CO | 3% | -0.58
c1ccc(CN2CC(c3nc(-c4cnccn4)no3)C2)cc1 | -15% | 2.88
C[C@H](C(=O)NCCN1CCOCC1)C1CCN(C(=O)c2cc3ccccc3[nH]2)CC1 | -13% | 1.17
COCc1nc(C)c(C(=O)NC(C)(C)CCCNC(=O)OC(C)(C)C)s1 | 1% | -0.19
CNC(=O)COc1ccc(OCc2ccnc(N(C)C)c2)cc1 | -14% | 1.94
C[C@@H](C(=O)N1CCOCCNC(=O)CC1)c1ccccc1 | -12% | 1.36
Cc1ncccc1CNC(=O)N1Cc2ccccc2C[C@@H]1C | 4% | -0.51
O=C1C[C@]2(CC2(c2ccccc2)c2ccccc2)C(=O)N1c1cccc(Br)c1 | 19% | -3.6
COc1ccc(-c2n[nH]c(C3CC3)c2NC(=O)Nc2ccc(F)cc2F)cc1OC | -5% | 0.85

Structure (SMILES) | % Inhibition | Z score
CN(c1ccc2ccccc2n1)S(=O)(=O)C[C@H]1CCCO1 | -2% | 0.28
Cc1noc(C)c1CN(C)C(=O)c1ccc(-c2cnn(C)c2N)cc1 | 6% | -0.82
CCCOc1ccc(CN[C@H]2CCCc3c(OC)cccc32)cn1 | -3% | 0.42
Cc1cc(NCCOCC(F)(F)F)c(C(N)=O)cc1F | -17% | 2.82
COCCN1C(=O)C[C@](CC(=O)N2CCN(Cc3ccncc3)CC2)(c2ccccc2C)C1=O | -12% | 1.86
Cc1cn2cc(CC(=O)N[C@@H]3CCCc4cccnc43)nc2s1 | -14% | 2.19
Cc1ccc2[nH]c(C(=O)N3CC[C@H](O)CC(C)(C)C3)cc2c1C | -2% | 0.28
CCCn1cc(C(=O)N(C)CC2(C)COC2)c(C)n1 | -3% | 0.5
Cn1cc(N)c(Oc2ccc(F)cc2F)n1 | 37% | -0.93
O=C(Nc1cnns1)c1cncc(Br)c1 | 5% | -0.78
CCC(=O)Cn1nc(CC)c(CC)c(C#N)c1=O | -11% | 1.31
O=C(NCc1ccco1)c1[nH]nc2c1CN(C(=O)Cc1ccc(Cl)c(Cl)c1)CC2 | -15% | 1.77
COc1cccc(-c2ccc(N3CCN(C(=O)CN(CC(C)C)C(=O)C4CCC4)CC3)nn2)c1 | -12% | 1.76
CCOc1ccc(C(=O)NCC(=O)Nc2ccc3c(c2)OCCCO3)cc1 | -8% | 0.91
O=C(NC1CCCCCC1)c1nc(N2CCCC2)c2ccccc2n1 | -5% | 0.9
COc1cc2c(cc1OC)CN(C(=O)c1ccc3c(c1)OCCO3)CC2 | 7% | -1.16
Cc1ccc(NC(=O)[C@@H]2CCN(c3cccc(C)c3C)C2=O)cc1 | -6% | 0.57
Cc1ncsc1C(=O)NCCN1c2cc(F)ccc2N(C)S1(=O)=O | 13% | -1.67
Cc1cccc(CN2CC[C@]3(O)CCN(C(=O)C4CCCC4)C[C@@H]3C2)n1 | -2% | 0.22
C=CCCC(=O)N(CCN1CCCS1(=O)=O)c1cccc(F)c1 | -13% | 1.33
Cc1ccc2nc(-c3ccc(NC(=O)c4cccc5ccccc45)cc3)oc2c1 | -32% | 3.75

Structure (SMILES) | % Inhibition | Z score
O=C(Nc1nccs1)C1CCC(Cn2cnnn2)CC1 (stereo not drawn) | -15% | 1.88
O=C(C1CCCCC1)N1CC2CCC2(Nc2ncccn2)C1 (stereo not drawn) | -8% | 1.06
Cc1ncnc(N2CCN(Cc3nncn3C(C)C)CC2)c1C | 10% | -1.85
O=C(COc1ccccc1N1C(=O)c2ccccc2C1=O)c1ccc(Cl)cc1 | 2% | -0.28
Cc1nc2c(c(N3CCCC3)n1)CCN(C(=O)CNC(N)=O)C2 | 2% | -0.4
CCc1onc(C)c1NC(=O)Nc1ccc(C(C)=O)c(Cl)c1 | -1% | 0.13
Cc1ccc2nc(CN(Cc3nccn3C)C3CC3)[nH]c2c1 | -10% | 1.05
Cn1cc(C2CCCN2CC(O)COCC2CCCO2)cn1 (stereo not drawn) | 0% | 0.03
COc1ccccc1NC(=O)Cc1nnc(-c2sccc2C)o1 | -5% | 0.47
C[C@H]1C(=O)N2C[C@@H](N(C)C)C[C@H]2CN1C(=O)COCc1ccccc1 | 6% | -0.73
Fc1ccccc1CN1CC(c2nc(-c3ccco3)no2)C1 | 21% | -2.43
CN(CCc1cccc(Br)c1)C1CC[S+]([O-])CC1 (stereo not drawn) | -8% | 1.19
N#CC1(NC(=O)c2ccnnc2)CCCCC1 | -2% | 0.17
COc1ccc(NC(=O)c2c(OC)cc(=O)n3c2CCCC3)c(C)c1 | -17% | 2.69
Cc1cc(C(=O)N2CCC[C@](C)(c3noc(-c4ccncc4)n3)C2)c(C)o1 | -4% | 0.56
Cc1oc(NC(=O)[C@H]2CCCO2)nc1C1CC1 | -4% | 0.72
CC(C)NS(=O)(=O)[C@H]1CCN(Cc2ccnc(N)c2)C1 | -15% | 2.07
Cc1cc(C)cc(CN2CCN(C(=O)[C@@H]3CC[C@H](C(=O)O)C3)CC2=O)c1 | 9% | -1.21
COC1CCC(CCNCc2ccccc2)CC1 (stereo not drawn) | -15% | 2.25
Cc1c(CC(=O)N[C@H]2CCCCNC2=O)c2c(n1Cc1ccccc1)CCCC2=O | -15% | 1.91
CC(C)CC(=O)N1C[C@H](c2nc(-c3cccnc3)no2)[C@@H](C)C1 | 3% | -0.33

Structure (SMILES) | % Inhibition | Z score
COc1ccsc1S(=O)(=O)N1CC2CCCC2C1 (stereo not drawn) | 2% | -0.29
CC(C)n1ccc(Cn2nc(C(F)(F)F)ccc2=O)n1 | -5% | 0.61
CCO[C@H]1CCN(C(=O)c2cnc(Oc3ccccc3)cn2)C1 | -2% | 0.24
N#Cc1ccc(S(=O)(=O)N2CCN(C(=O)[C@H]3CC(=O)N(Cc4ccccc4Cl)C3)CC2)cc1 | -5% | 0.67
Cc1nnc(-c2cc(C3CC3)n(-c3cccc(C(=O)NCCCc4ccccc4)c3)n2)o1 | 5% | -0.92
COc1cccc(C(=O)N2CCC(N3C[C@H](O)C[C@H]3C(=O)Nc3ccc(N4CCOCC4)cc3)CC2)c1 | -10% | 1.32
Cc1nc(-c2cc(S(=O)(=O)NC3CC3)cn2C)sc1C(=O)N1CCOCC1 | -17% | 2.07
Cc1cc(NC(=O)c2cc(C(C)C)[nH]n2)ccc1N1C(=O)CCC1=O | -12% | 1.84
O=C(C1CCCC1)N1CC[C@@]2(O)CCN(CCOc3ccccc3)C[C@H]2C1 | -6% | 1.17
CNc1ncc(C(=O)N2CC[C@@]3(CCCN(CC4CCCCC4)C3=O)C2)cn1 | -14% | 2.25
CCn1ccnc1[C@H](C)NC(=O)c1ccc2c(C)cc(=O)[nH]c2c1 | -11% | 1.49
CNc1ccc(Cl)cc1C(=O)N1CCC2(CCO2)CC1 | -26% | 2.3
COC(=O)c1ccc(CN[C@@H]2CCCC[C@H]2O)n1C | 2% | -0.37
CC(=O)N1CCCN(C(=O)NC2CCCCCCC2)CC1 | -7% | 0.93
Cc1ccc2nc(-c3ccco3)nc(N3CCN(C(=O)Cc4ccc(F)cc4)CC3)c2c1 | -9% | 1.19
COc1cc([C@H]2NC(=O)c3ccccc3N2C)cc2c1OCCO2 | -5% | 0.73
COc1cccc(Cn2ccc3ccn(Cc4cccnc4)c3c2=O)c1 | 9% | -0.82
O=C(c1cc(Cl)c[nH]1)N1CCCO[C@@H](CN2CCOCC2)C1 | -1% | 0.12
COc1ccc(S(=O)(=O)[C@H]2CS(=O)(=O)C[C@@H]2NCCN2CCOCC2)cc1C | -2% | 0.26
C[C@H](O)c1ccn(Cc2nc(C(F)(F)F)cs2)n1 | -9% | 1.05
COc1ccnc(Cn2ccc(-c3cccc(-c4ncccc4C#N)c3)n2)c1 | 1% | -0.24
